# According to the supplement of paper PMC8728848:
# The other results are listed elsewhere or left out.
# Columns and labels:
# Test in all cases: glycan array binding signal (z-score within array); higher = stronger binding
# Settings in all cases: glycan notation: IUPAC condensed, linker removed
# GlcNAc(b1-3)Gal(b1-4)Glc = target: GlcNAc(b1-3)Gal(b1-4)Glc
# Summary of the method: (§1)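 The binding signal is a Z-score computed within each array and averaged over linkers. Arrays of the same protein sequence at different concentrations or buffers were also averaged together. Data originate from 3228 arrays in the Consortium for Functional Glycomics database, kept only where the protein sequence was available.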
# [1] = target: GlcNAc(b1-3)Gal(b1-4)GlcNAc
# Summary of the method: as §1
# [2] = target: GlcNAc(b1-3)Gal(b1-4)GlcNAc(b1-3)Gal(b1-4)GlcNAc
# Summary of the method: as §1
# GlcNAc(b1-3)GalNAc = target: GlcNAc(b1-3)GalNAc
# Summary of the method: as §1
# GlcNAc(b1-3)Man = target: GlcNAc(b1-3)Man
# Summary of the method: as §1
# [3] = target: GlcNAc(b1-3)[GlcNAc(b1-4)][GlcNAc(b1-6)]GlcNAc
# Summary of the method: as §1
# [4] = target: GlcNAc(b1-3)[GlcNAc(b1-6)]Gal(b1-4)GlcNAc
# Summary of the method: as §1
# [5] = target: GlcNAc(b1-3)[GlcNAc(b1-6)]GalNAc
# Summary of the method: as §1
# [6] = target: GlcNAc(b1-4)Gal(b1-4)GlcNAc
# Summary of the method: as §1
# GlcNAc(b1-4)GlcNAc = target: GlcNAc(b1-4)GlcNAc
# Summary of the method: as §1
# [7] = target: GlcNAc(b1-4)GlcNAc(b1-4)GlcNAc
# Summary of the method: as §1
# [8] = target: GlcNAc(b1-4)GlcNAc(b1-4)GlcNAc(b1-4)GlcNAc(b1-4)GlcNAc
# Summary of the method: as §1
# [9] = target: GlcNAc(b1-4)GlcNAc(b1-4)GlcNAc(b1-4)GlcNAc(b1-4)GlcNAc(b1-4)GlcNAc
# Summary of the method: as §1
# [10] = target: GlcNAc(b1-4)[GlcNAc(b1-6)]GalNAc
# Summary of the method: as §1
# [11] = target: GlcNAc(b1-6)Gal(b1-4)GlcNAc
# Summary of the method: as §1
# GlcNAc(b1-6)GalNAc = target: GlcNAc(b1-6)GalNAc
# Summary of the method: as §1
# GlcNAc3Prop(b1-4)GlcNAc = target: GlcNAc3Prop(b1-4)GlcNAc
# Summary of the method: as §1
# Kdn(a2-3)Gal(b1-3)GlcNAc = target: Kdn(a2-3)Gal(b1-3)GlcNAc
# Summary of the method: as §1
# Kdn(a2-3)Gal(b1-4)GlcNAc = target: Kdn(a2-3)Gal(b1-4)GlcNAc
# Summary of the method: as §1
# [12] = target: Man(a1-2)Man(a1-2)Man(a1-3)Man
# Summary of the method: as §1
# [13] = target: Man(a1-2)Man(a1-2)Man(a1-6)[Man(a1-3)]Man
# Summary of the method: as §1
# Man(a1-2)Man(a1-3)Man = target: Man(a1-2)Man(a1-3)Man
# Summary of the method: as §1
# [14] = target: Man(a1-2)Man(a1-3)[Man(a1-2)Man(a1-6)]Man
# Summary of the method: as §1
# [15] = target: Man(a1-2)Man(a1-3)[Man(a1-2)Man(a1-6)]Man(a1-6)[Man(a1-2)Man(a1-2)Man(a1-3)]Man
# Summary of the method: as §1
# [16] = target: Man(a1-2)Man(a1-3)[Man(a1-2)Man(a1-6)]Man(a1-6)[Man(a1-2)Man(a1-2)Man(a1-3)]Man(b1-4)GlcNAc(b1-4)GlcNAc
# Summary of the method: as §1
# [17] = target: Man(a1-2)Man(a1-3)[Man(a1-6)]Man(a1-6)[Man(a1-2)Man(a1-3)]Man(b1-4)GlcNAc(b1-4)GlcNAc
# Summary of the method: as §1
# [18] = target: Man(a1-2)Man(a1-6)[Man(a1-3)]Man(a1-6)[Man(a1-2)Man(a1-2)Man(a1-3)]Man
# Summary of the method: as §1
# [19] = target: Man(a1-2)Man(a1-6)[Man(a1-3)]Man(a1-6)[Man(a1-2)Man(a1-2)Man(a1-3)]Man(b1-4)GlcNAc(b1-4)GlcNAc
# Summary of the method: as §1
# Man(a1-3)[Man(a1-6)]Man = target: Man(a1-3)[Man(a1-6)]Man
# Summary of the method: as §1
# [20] = target: Man(a1-3)[Man(a1-6)]Man(a1-6)[Man(a1-2)Man(a1-3)]Man(b1-4)GlcNAc(b1-4)GlcNAc
# Summary of the method: as §1
# [21] = target: Man(a1-3)[Man(a1-6)]Man(a1-6)[Man(a1-3)]Man
# Summary of the method: as §1
# [22] = target: Man(a1-3)[Man(a1-6)]Man(a1-6)[Man(a1-3)]Man(b1-4)GlcNAc(b1-4)GlcNAc
# Summary of the method: as §1
# [23] = target: Man(a1-3)[Man(a1-6)]Man(b1-4)GlcNAc(b1-4)GlcNAc
# Summary of the method: as §1
# Man(a1-6)Man = target: Man(a1-6)Man
# Summary of the method: as §1
# Man(b1-4)GlcNAc = target: Man(b1-4)GlcNAc
# Summary of the method: as §1
# Neu5Ac(a2-3)Gal = target: Neu5Ac(a2-3)Gal
# Summary of the method: as §1
# [24] = target: Neu5Ac(a2-3)Gal(b1-3)GalNAc
# Summary of the method: as §1
# [25] = target: Neu5Ac(a2-3)Gal(b1-3)GalNAc(b1-3)Gal(a1-4)Gal(b1-4)Glc
# Summary of the method: as §1
# [26] = target: Neu5Ac(a2-3)Gal(b1-3)GalNAc(b1-3)Gal(b1-4)GlcNAc
# Summary of the method: as §1
# [27] = target: Neu5Ac(a2-3)Gal(b1-3)GalNAc(b1-4)[Neu5Ac(a2-3)]Gal(b1-4)Glc
# Summary of the method: as §1
# [28] = target: Neu5Ac(a2-3)Gal(b1-3)GalNAc6S
# Summary of the method: as §1
# [29] = target: Neu5Ac(a2-3)Gal(b1-3)GlcNAc
# Summary of the method: as §1
# [30] = target: Neu5Ac(a2-3)Gal(b1-3)GlcNAc(b1-3)Gal(b1-3)GlcNAc
# Summary of the method: as §1
# [31] = target: Neu5Ac(a2-3)Gal(b1-3)GlcNAc6S
# Summary of the method: as §1
# [32] = target: Neu5Ac(a2-3)Gal(b1-3)[Fuc(a1-4)]GlcNAc
# Summary of the method: as §1
binder,measurement,setting,value
"CBM32-4 (Clostridium perfringens), P26831 (protein) MGSSHHHHHHSSGLVPRGSHMASVYEPSLVDAYVGDDGAKKAVDGDLKTRVKFLGAPSTGDTIVYDLGQEILVDNLKYVVLDTEVDHVRDGKIQLSLDGETWTDAINIGDGVENGVDDMFSTPLKNGYKHGNQSGGIVPIDSAYVEGDNLNQKARYVRILFTAPYRHRWTVINELMINNGEYIPTVNDPT",glycan array binding signal (z-score),GlcNAc(b1-3)Gal(b1-4)Glc,-0.322
same,glycan array binding signal (z-score),[1],-0.294
same,glycan array binding signal (z-score),[2],-0.423
same,glycan array binding signal (z-score),GlcNAc(b1-3)GalNAc,-0.459
same,glycan array binding signal (z-score),GlcNAc(b1-3)Man,-0.255
same,glycan array binding signal (z-score),[3],-0.436
same,glycan array binding signal (z-score),[4],0.021
same,glycan array binding signal (z-score),[5],-0.289
same,glycan array binding signal (z-score),[6],-0.394
same,glycan array binding signal (z-score),GlcNAc(b1-4)GlcNAc,0.065
same,glycan array binding signal (z-score),[7],-0.265
same,glycan array binding signal (z-score),[8],2.69
same,glycan array binding signal (z-score),[9],3.33
same,glycan array binding signal (z-score),[10],-0.49
same,glycan array binding signal (z-score),[11],-0.437
same,glycan array binding signal (z-score),GlcNAc(b1-6)GalNAc,-0.436
same,glycan array binding signal (z-score),GlcNAc3Prop(b1-4)GlcNAc,-0.448
same,glycan array binding signal (z-score),Kdn(a2-3)Gal(b1-3)GlcNAc,-0.535
same,glycan array binding signal (z-score),Kdn(a2-3)Gal(b1-4)GlcNAc,-0.439
same,glycan array binding signal (z-score),[12],-0.132
same,glycan array binding signal (z-score),[13],-0.373
same,glycan array binding signal (z-score),Man(a1-2)Man(a1-3)Man,-0.021
same,glycan array binding signal (z-score),[14],-0.276
same,glycan array binding signal (z-score),[15],-0.564
same,glycan array binding signal (z-score),[16],0.898
same,glycan array binding signal (z-score),[17],0.141
same,glycan array binding signal (z-score),[18],-0.516
same,glycan array binding signal (z-score),[19],-0.464
same,glycan array binding signal (z-score),Man(a1-3)[Man(a1-6)]Man,-0.553
same,glycan array binding signal (z-score),[20],-0.14
same,glycan array binding signal (z-score),[21],-0.127
same,glycan array binding signal (z-score),[22],0.1
same,glycan array binding signal (z-score),[23],-0.329
same,glycan array binding signal (z-score),Man(a1-6)Man,0.796
same,glycan array binding signal (z-score),Man(b1-4)GlcNAc,-0.243
same,glycan array binding signal (z-score),Neu5Ac(a2-3)Gal,-0.214
same,glycan array binding signal (z-score),[24],-0.071
same,glycan array binding signal (z-score),[25],-0.509
same,glycan array binding signal (z-score),[26],-0.526
same,glycan array binding signal (z-score),[27],-0.441
same,glycan array binding signal (z-score),[28],0.512
same,glycan array binding signal (z-score),[29],-0.422
same,glycan array binding signal (z-score),[30],-0.344
same,glycan array binding signal (z-score),[31],0.564
same,glycan array binding signal (z-score),[32],-0.414
